{"source": "paper PMC3927447", "about": "(Developmental cell, 2014)", "binders": {"B1": {"name": "untagged mouse Bub3 co-expressed with 6His-BuGZ in Sf9 cells (natural protein)", "chain": "not shown"}}, "target": "mouse 6His-BuGZ co-expressed with Bub3 in Sf9 cells (mouse, UniProt Q9JMD0 1-495)", "sequence (Q9JMD0 whole entry)": "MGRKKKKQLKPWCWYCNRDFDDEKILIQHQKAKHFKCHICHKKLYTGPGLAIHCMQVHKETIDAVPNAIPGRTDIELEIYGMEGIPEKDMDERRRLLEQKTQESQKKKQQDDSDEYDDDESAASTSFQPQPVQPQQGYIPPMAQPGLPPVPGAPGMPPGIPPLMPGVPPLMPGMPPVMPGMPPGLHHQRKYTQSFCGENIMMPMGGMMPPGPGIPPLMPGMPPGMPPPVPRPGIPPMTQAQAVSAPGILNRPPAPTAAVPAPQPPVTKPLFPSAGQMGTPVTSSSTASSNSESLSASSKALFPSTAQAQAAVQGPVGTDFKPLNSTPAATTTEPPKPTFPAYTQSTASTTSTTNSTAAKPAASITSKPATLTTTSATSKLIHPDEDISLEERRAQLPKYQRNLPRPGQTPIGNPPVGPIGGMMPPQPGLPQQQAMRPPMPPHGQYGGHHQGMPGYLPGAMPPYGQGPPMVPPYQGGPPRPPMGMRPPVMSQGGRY", "experiment": "SEC"}
{"binder": "B1", "values": [{"measurement": "stoichiometry N", "result": 1}]}
